# Test results reported in the supplement of paper PMC12645437, “Orthogonal IMiD-Degron Pairs Induce Selective Protein Degradation in Cells” (ACS Chemical Biology, 2025).
# Some of the results follow.
# Target: no compound (DMSO)
# Experiment: log2 fold change of degron read counts, EGFP-low vs EGFP+ sorted cells; higher = lower degron-EGFP level without compound (poor expression or instability)
# Conditions: compound: DMSO control; 18 h
# 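Note: jurkat cells carrying a lentiviral library of mutant zinc finger degrons fused to EGFP plus mCherry, mCherry+ cells FACS sorted, degron abundance counted by next-generation sequencing.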
row,Sequence,log2 fold change of degron read counts
1,FMCPVCGAQFTQKGNLLRHIKL,-0.924
2,LQCNQCGFNCTQKGNLLRHIKL,-0.0968
3,FNCSVCGHEFTQKGNLLRHIKL,-1.68
4,LYCEICGFWCTQKGNLLRHIKL,0.8
5,FICDQCGADFTQKGNLLRHIKL,-2.66
6,FRCDQCGADFTQKGNLLRHIKL,-1.89
7,FSCEVCGASFTQKGNLLRHIKL,-2.03
8,LECNQCGFACTQKGNLLRHIKL,-0.633
9,LECNQCGFPCTQKGNLLRHIKL,-0.0422
10,FRCPICGRSFTQKGNLLRHIKL,-0.435
11,FFCDICGASFTQKGNLLRHIKL,-1.55
12,FCCDICGADFTQKGNLLRHIKL,-0.873
13,FTCNQCGRAFTQKGNLLRHIKL,-0.647
14,FDCNQCGHSFTQKGNLLRHIKL,-0.21
